# Source: the antibiotic and cytotoxicity screens of Wong et al. (2023)
# This is one part of the list.
# Assays:
# [1] = test system: HSkMC (human skeletal muscle cells); assay: cytotoxicity call (relative viability < 0.9); conditions: 10 µM
# [2] = test system: HepG2; assay: cytotoxicity call (relative viability < 0.9); conditions: 10 µM
# [3] = test system: S. aureus RN4220; assay: growth inhibition call (relative growth <= 0.2); conditions: 50 µM
SMILES,cytotoxicity call [1],cytotoxicity call [2],growth inhibition call [3]
CNC(=O)CO[C@H]1COC2(CCN(C(=O)c3ccn(C)n3)CC2)C1,inactive,inactive,inactive
Cc1ccc(CN)s1,inactive,inactive,inactive
C[C@@H]1CN([C@H](C)CO)C(=O)c2cc(NS(=O)(=O)c3ccccc3)ccc2O[C@@H](C)CCCCO[C@@H]1CN(C)S(=O)(=O)c1ccc(Cl)cc1,inactive,inactive,inactive
Cc1ccc(S(=O)(=O)Nc2ccc3c(c2)CC(=O)N([C@H](C)CO)C[C@@H](C)[C@@H](CN(C)S(=O)(=O)c2c(C)noc2C)O3)cc1,inactive,inactive,inactive
C[C@@H]1CN([C@@H](C)CO)C(=O)c2cc(NS(=O)(=O)c3ccc(F)cc3)ccc2O[C@@H](C)CCCCO[C@H]1CN(C)Cc1ccccc1,inactive,inactive,inactive
O=C(CCCCCCC(=O)N/N=C/[C@H](O)[C@@H](O)[C@H](O)[C@H](O)CO)NO,inactive,inactive,inactive
NC(=O)c1cnccn1,inactive,inactive,inactive
C[C@@H]1CN([C@@H](C)CO)C(=O)CCCn2nncc2CO[C@H]1CN(C)C(=O)Nc1cccc(Oc2ccccn2)c1,inactive,inactive,inactive
COc1ccccc1S(=O)(=O)N(C)C[C@H]1Oc2cc(C#CCC(C)C)ccc2S(=O)(=O)N([C@@H](C)CO)C[C@@H]1C,inactive,inactive,inactive
C[C@@H](O)C#Cc1cnc2c(c1)C(=O)N([C@@H](C)CO)C[C@H](C)[C@H](CN(C)Cc1cncnc1)O2,inactive,inactive,inactive
C[C@H]1CN([C@@H](C)CO)C(=O)Cc2cc(NC(=O)Nc3ccc(C(F)(F)F)cc3)ccc2O[C@@H]1CN(C)Cc1ccc(-c2ccccc2)cc1,active,inactive,inactive
C[C@@H]1CN([C@H](C)CO)C(=O)c2cc(NS(=O)(=O)c3cn(C)cn3)ccc2O[C@@H](C)CCCCO[C@@H]1CN(C)S(=O)(=O)c1cn(C)cn1,inactive,inactive,inactive
COc1ccc([Si](C)(C)[C@H]2[C@H](CC(=O)N3Cc4ccccc4C[C@H]3CO)O[C@@]3(C(=O)N(Cc4ccc(N5C(=O)c6cccc7cccc5c67)cc4)c4ccccc43)[C@@H]2C)cc1,inactive,inactive,inactive
CCN(CC)c1ccnc([C@H]2COCCN2)n1,inactive,inactive,inactive
NCCS(=O)(=O)O,inactive,inactive,inactive
Cn1cncc1CO,inactive,inactive,inactive
C[C@H](CO)N1C[C@H](C)[C@@H](CN(C)S(=O)(=O)c2cn(C)cn2)Oc2cc(C3=CCCCC3)ccc2S1(=O)=O,inactive,inactive,inactive
COCC#Cc1cnc2c(c1)C(=O)N([C@H](C)CO)C[C@@H](C)[C@H](CN(C)S(=O)(=O)c1ccccc1)O2,inactive,inactive,inactive
COc1ccc(cc1)CN1C[C@]2(CN(C2)C(=O)C2CCOCC2)c2c(n(c3cc(ccc23)OC)C)[C@@H]1CO,inactive,inactive,inactive
C[C@H]1CN([C@@H](C)CO)C(=O)Cc2cc(NC(=O)NC3CCCCC3)ccc2O[C@@H]1CN(C)Cc1ccc(C(=O)Nc2ccccc2N)cc1,inactive,inactive,inactive
COc1ccc(CN(C)C[C@@H]2Oc3ccc(NC(=O)C4CC4)cc3CC(=O)N([C@H](C)CO)C[C@H]2C)cc1,inactive,inactive,inactive
Cc1noc(C)c1S(=O)(=O)Nc1ccc2c(c1)C(=O)N([C@@H](C)CO)C[C@@H](C)[C@@H](CN(C)C(=O)Nc1cccc3ccccc13)OCCCC[C@H](C)O2,inactive,inactive,inactive
CC(C)C#Cc1cnc2c(c1)C(=O)N([C@H](C)CO)C[C@@H](C)[C@H](CN(C)S(=O)(=O)c1cn(C)cn1)O2,inactive,inactive,inactive
C[C@@H]1CCCCO[C@H](CN(C)Cc2ccc(Cl)c(Cl)c2)[C@@H](C)CN([C@@H](C)CO)C(=O)c2cc(NC(=O)Cc3ccccc3)ccc2O1,inactive,inactive,inactive
C[C@@H]1CN([C@@H](C)CO)C(=O)c2cc(NC(=O)CCCN(C)C)ccc2O[C@@H]1CN(C)C(=O)Nc1ccc2c(c1)OCO2,inactive,inactive,inactive
COc1ccc(CN(C)C[C@@H]2OCCCC[C@@H](C)Oc3ccc(NC(=O)c4ccncc4)cc3C(=O)N([C@H](C)CO)C[C@H]2C)cc1,inactive,inactive,inactive
C[C@@H]1CN([C@@H](C)CO)C(=O)Cc2cc(NC(=O)Nc3ccc(C(F)(F)F)cc3)ccc2O[C@@H]1CN(C)S(C)(=O)=O,inactive,inactive,inactive
Cc1noc(C)c1NC(=O)N(C)C[C@H]1OCCCC[C@H](C)Oc2ccc(NC(=O)c3ccccc3)cc2C(=O)N([C@@H](C)CO)C[C@@H]1C,inactive,inactive,inactive
